According to PubChem BioAssay (NCI):
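Results reflect a 48-hour exposure of cells in 96-well plates to compound at five concentrations. Here, GI50 denotes the concentration required for 50% inhibition of growth. TGI marks complete inhibition of growth.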

System: NCI-H322M lung
Assay: NCI-60 cell line screen, 48 h

Compound | GI50 | TGI
COc1ccc(NC(=O)[C@H](C)NC(=O)OC(C)(C)C)cc1C(=O)Nc1cccc(-c2cc(=O)c3c(OC)c(OC)c(OC)cc3o2)c1 | 2.43 µM | 6.98 µM
CC(C)(C)c1cc(NC(=O)Nc2ccc(-c3cn4c5c(sc4n3)CCc3cn(CCCN4CCCCC4)cc3-5)cc2)no1 | 1.8 µM | 3.34 µM
